From publication PMC2843631
Results are given in words; binding and its absence hold for the method and conditions named. Binding seen in cells or lysates may run through a third protein. Some binding calls cover weakened binding; strength is not graded here. For part of these data: Tags and fused reporters may be left off the sequences shown.

Amino acid sequences for entries named in this document (tags omitted). A change or cut given only in a name is not applied to a line headed by its entry. Residues count along the entry.
UniProt Q9Y6K9: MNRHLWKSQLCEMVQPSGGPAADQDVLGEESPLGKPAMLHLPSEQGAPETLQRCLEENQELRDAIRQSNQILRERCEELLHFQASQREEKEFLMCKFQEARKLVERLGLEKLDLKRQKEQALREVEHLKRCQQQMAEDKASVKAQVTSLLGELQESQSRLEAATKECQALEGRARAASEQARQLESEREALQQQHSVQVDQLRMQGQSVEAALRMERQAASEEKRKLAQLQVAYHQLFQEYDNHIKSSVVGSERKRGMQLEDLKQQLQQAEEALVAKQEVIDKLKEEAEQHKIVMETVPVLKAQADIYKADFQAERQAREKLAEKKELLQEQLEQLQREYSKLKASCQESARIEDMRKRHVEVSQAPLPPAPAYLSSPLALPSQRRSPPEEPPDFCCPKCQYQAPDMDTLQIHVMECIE
UniProt P10809, residues 27-573: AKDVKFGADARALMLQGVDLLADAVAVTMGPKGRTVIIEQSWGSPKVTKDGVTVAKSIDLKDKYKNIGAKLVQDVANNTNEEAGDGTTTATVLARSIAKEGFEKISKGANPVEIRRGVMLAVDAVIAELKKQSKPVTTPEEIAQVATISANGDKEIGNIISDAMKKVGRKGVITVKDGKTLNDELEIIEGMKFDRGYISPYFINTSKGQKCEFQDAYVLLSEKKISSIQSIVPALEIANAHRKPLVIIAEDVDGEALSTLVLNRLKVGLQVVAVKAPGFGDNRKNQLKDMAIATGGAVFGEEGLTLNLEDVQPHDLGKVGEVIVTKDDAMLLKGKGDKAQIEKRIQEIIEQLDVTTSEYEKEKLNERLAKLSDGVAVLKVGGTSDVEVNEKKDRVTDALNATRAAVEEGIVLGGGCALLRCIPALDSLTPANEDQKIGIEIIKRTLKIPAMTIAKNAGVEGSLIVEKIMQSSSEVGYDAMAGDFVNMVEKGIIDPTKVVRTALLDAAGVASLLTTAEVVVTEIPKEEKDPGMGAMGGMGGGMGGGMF

Experiments:
[1] = target: endogenous IKK complex (human (endogenous in HeLa)) (UniProt O15111+O14920+Q9Y6K9); assay: co-IP; endogenous IKK complex immunoprecipitated from HeLa cells transfected with Hsp60c constructs (HA tag) for 24 hrs; cells of Fig. 6A then treated with TNF-α
[2] = target: T1, IKKα, Flag-tagged (human) (UniProt O15111); assay: co-IP; 293T cells co-transfected with Hsp60c constructs (HA tag) and each of the IKK subunit proteins (Flag tag) for 24 hrs
T1 sequence: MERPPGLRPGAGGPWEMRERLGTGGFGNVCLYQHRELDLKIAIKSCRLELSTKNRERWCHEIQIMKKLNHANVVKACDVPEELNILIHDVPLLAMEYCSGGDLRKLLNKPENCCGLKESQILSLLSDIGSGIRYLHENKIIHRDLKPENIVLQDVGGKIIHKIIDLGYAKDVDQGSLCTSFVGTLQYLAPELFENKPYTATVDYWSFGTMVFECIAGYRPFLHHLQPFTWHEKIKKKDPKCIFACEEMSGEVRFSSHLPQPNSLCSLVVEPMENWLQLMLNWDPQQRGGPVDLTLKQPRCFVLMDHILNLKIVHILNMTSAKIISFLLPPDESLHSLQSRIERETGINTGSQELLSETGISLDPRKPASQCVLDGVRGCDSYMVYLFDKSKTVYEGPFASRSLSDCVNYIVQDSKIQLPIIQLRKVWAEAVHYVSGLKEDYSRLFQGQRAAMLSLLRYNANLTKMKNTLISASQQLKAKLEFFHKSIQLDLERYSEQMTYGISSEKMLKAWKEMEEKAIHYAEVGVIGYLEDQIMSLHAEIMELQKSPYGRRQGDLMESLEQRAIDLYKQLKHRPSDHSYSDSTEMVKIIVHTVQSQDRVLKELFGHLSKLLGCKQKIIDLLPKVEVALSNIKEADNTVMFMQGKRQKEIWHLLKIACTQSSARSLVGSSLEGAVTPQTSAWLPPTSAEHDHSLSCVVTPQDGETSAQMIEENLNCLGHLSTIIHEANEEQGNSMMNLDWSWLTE

[3] = target: T2, IKKβ, Flag-tagged (human) (UniProt O14920); assay: as above
T2 sequence: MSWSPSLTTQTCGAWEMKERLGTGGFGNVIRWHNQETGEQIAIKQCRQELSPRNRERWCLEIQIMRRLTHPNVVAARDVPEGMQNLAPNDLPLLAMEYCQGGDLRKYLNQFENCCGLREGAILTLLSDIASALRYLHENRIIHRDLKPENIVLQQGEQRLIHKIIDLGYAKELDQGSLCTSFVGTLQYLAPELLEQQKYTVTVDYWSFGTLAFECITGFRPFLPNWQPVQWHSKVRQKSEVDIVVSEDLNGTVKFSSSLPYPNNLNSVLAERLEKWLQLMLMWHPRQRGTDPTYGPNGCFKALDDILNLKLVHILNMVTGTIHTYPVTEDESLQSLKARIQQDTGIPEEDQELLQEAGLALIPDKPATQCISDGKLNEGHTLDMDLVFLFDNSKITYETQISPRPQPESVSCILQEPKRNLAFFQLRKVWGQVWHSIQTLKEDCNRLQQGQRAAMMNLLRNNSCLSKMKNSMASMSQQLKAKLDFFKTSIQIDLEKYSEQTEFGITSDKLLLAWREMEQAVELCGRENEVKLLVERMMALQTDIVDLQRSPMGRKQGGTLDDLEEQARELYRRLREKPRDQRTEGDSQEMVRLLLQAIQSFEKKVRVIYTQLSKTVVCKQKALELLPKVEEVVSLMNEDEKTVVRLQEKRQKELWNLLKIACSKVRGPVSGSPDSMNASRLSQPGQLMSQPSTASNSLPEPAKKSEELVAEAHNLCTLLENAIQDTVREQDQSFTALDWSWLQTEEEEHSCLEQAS

[4] = target: T3, IKKα, endogenous (human (endogenous in HeLa)) (UniProt O15111); assay: co-IP; immunoblot of the IKK complex affinity-purified from HeLa S3 lysate with anti-IKKα antibody beads
T3 sequence: T1 sequence

[5] = target: T4, IKKβ, endogenous (human (endogenous in HeLa)) (UniProt O14920); assay: co-IP; endogenous; HeLa cell lysates (500 µg total protein each) immunoprecipitated with IKKα-, IKKβ- and IKKγ-specific antibodies and protein A/G agarose, lysis buffer A, 4°C; cells with or without TNF-α (10 ng/ml), interaction unaffected
T4 sequence: T2 sequence

[6] = target: T3, IKKα, endogenous (human (endogenous in HeLa)); assay: as above

| binding [1] | binding [2] | binding [3] | binding [4] | binding [5] | binding [6] | Substance |
| --- | --- | --- | --- | --- | --- | --- |
| binds | binds | binds |  |  |  | Hsp60c, cytosol-targeted version of Hsp60 lacking the mitochondrial targeting sequence, HA-tagged (from UniProt P10809 27-573) (domain or fragment) |
|  |  |  | binds | binds | binds | heat shock protein 60 (Hsp60), endogenous (from UniProt P10809 27-573) |
